# Measured values taken from PubChem BioAssay AID1466 (National Center for Advancing Translational Sciences (NCATS), 2008).
# Hit rate of the full screen: of about 200,000 compounds, about 10 (0.005%) were called active. The shares of active, inactive and inconclusive entries below differ from those in the screen. Calls come from the whole dose curve; as a rule, active = well fitted inhibition curve with a large enough effect; inconclusive = small, poorly fitted or top-dose-only effect, or effect the other way, or another doubt; inactive = no such curve, though single readings can be large or run the other way. No potency is given beside an inconclusive call; the fits are too rough.
# Biological target: Lysosomal alpha-glucosidase (Homo sapiens) (UniProt P10253)
# Test: qHTS Assay for Inhibitors of Human alpha-Glucosidase as a Potential Chaperone Treatment of Pompe Disease;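 for activity change, negative = inhibition: plate controls were uninhibited enzyme wells for no effect and no-enzyme background for full effect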
# Conditions: purified human GAA, 4-MU-alpha-glucoside fluorescence; activity change, negative = inhibition: at 76.9 µM (top of the series) unless noted
# In short: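 Endpoint fluorogenic read: 20 min room-temperature reaction of 4 nM human alpha-glucosidase with 400 uM 4-methylumbelliferyl-alpha-D-pyranoside, pH 5.0, quenched with 1M NaOH/1M glycine pH 10. AC50 from Hill modeling.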
# Potency is the fitted concentration of half-maximal effect; tags give direction and shape of the fitted curve.
SMILES,Potency,"activity change, negative = inhibition"
Cc1cccn2c(=O)c3cc(C(=O)NCC4CCCO4)c(=N)n(Cc4cccnc4)c3nc12 (centres undefined),"inconclusive [activator, single point]",
CCCc1nc(NC2CCCCC2)c(C#N)c2c1COC(C)(C)C2,"inconclusive [activator, partial curve, poor fit]",
Cc1ccc(S(=O)(=O)NCc2nc3ccccc3c(=O)n2N)cc1,,inconclusive: -17.3% [inhibitor]
Cc1cccn2c(=O)c(/C=C(\C#N)C(=O)NC3CCS(=O)(=O)C3)c(N3CC(C)OC(C)C3)nc12 (centres undefined),"inconclusive [activator, partial curve, poor fit]",
COc1ccc2cc3cc(C(=O)NCC4CCCO4)oc3nc2c1 (centres undefined),"inconclusive [activator, partial curve]",
COc1cc(NC(=O)Cc2nn(C)c(=O)c3ccccc23)cc(OC)c1,"inconclusive [activator, full curve, poor fit]",
COc1ccccc1N/C(=N/S(=O)(=O)c1ccc(Cl)cc1)c1ccccc1,"inconclusive [inhibitor, single point]",
CCN(CC(=O)NC1CCS(=O)(=O)C1)c1nc(-c2cccnc2)nc2ccccc12 (centres undefined),"inconclusive [inhibitor, full curve, poor fit]",
CCn1ncc(Br)c1C(=O)Nc1ccc(C(=O)OC(C)C)cc1,,inconclusive: -16.5% [inhibitor]
Cc1cccc(/C=N/c2sc3c(c2C(=O)OC(C)(C)C)CCN(C)C3)c1O,"inconclusive [inhibitor, partial curve]",
COc1ccc(S(=O)(=O)N2CCC(C(=O)N3CCc4ccccc4C3)CC2)cc1,"inconclusive [inhibitor, partial curve, poor fit]",
COCCNC(=O)c1cc2nc(-c3ccc(F)cc3)cc(C(F)(F)F)n2n1,,inconclusive: 16.5% [activator]
COc1ccc(NC(=O)c2cccnc2Nc2ccc(OC)cc2)cc1,"inconclusive [inhibitor, single point]",
CCOC(=O)CC1C(=O)NCCN1c1nc2ccc(C)cn2c(=O)c1/C=C1\SC(=S)N(C(C)CC)C1=O (centres undefined),"inconclusive [inhibitor, single point]",
COc1cc(C(=O)Nc2cccc(-c3nc4cc(C)ccc4o3)c2)cc(OC)c1OC,"inconclusive [inhibitor, single point]",
COc1ccc(C(=O)COC(=O)CN2CC(=O)Oc3ccccc32)cc1Br,inactive,
COCC1CCN(Cc2cn(C)nc2-c2cccc(Cl)c2)C1 (centres undefined),,inconclusive: 17.2% [activator]
C=CCn1cc(-c2ccc(Cl)cc2)cc(C#N)c1=O,"inconclusive [activator, partial curve]",
CN(C)CCNc1nc2sc3c(c2c(=O)n1-c1ccc(F)cc1)CCCCC3,"inconclusive [inhibitor, single point]",
CC1CCc2nc3ccc(S(=O)(=O)N4CCC(C(=O)N5CCCCCC5)CC4)cc3c(C(=O)O)c2C1 (centres undefined),"inconclusive [inhibitor, partial curve, poor fit]",
COc1ccc(CCC(C)Nc2cccc(C)c2)cc1 (centres undefined),"inconclusive [inhibitor, partial curve, poor fit]",
COc1ccc(-c2noc(CCC(=O)NCCCN3CCN(c4ccccc4F)CC3)n2)cc1,"inconclusive [inhibitor, full curve, poor fit]",

SMILES,Potency,"activity change, negative = inhibition"
COc1ccccc1NC(=O)c1cc(Cl)nc2ccccc12,,inactive: -0.703% [at 15.4 µM]
CC(C(=O)Nc1ccc(O)cc1)c1cccc(C(=O)c2ccccc2)c1 (centres undefined),,inconclusive: 14.6% [activator]
O=S(=O)(c1ccccc1)N1CCN(c2ccnc3cc(Cl)ccc23)CC1,"inconclusive [inhibitor, single point]",
CCC(=O)Nc1ccc(NC(=O)c2ccco2)cc1,"inconclusive [inhibitor, single point]",
COc1ccc(S(=O)(=O)N2CCC(C(=O)Nc3ccc(F)cc3)CC2)c2cccnc12,"inconclusive [inhibitor, partial curve]",
Cn1nc(C(F)(F)F)c2cc(C(=O)Nc3ccc(F)cc3F)sc21,"inconclusive [inhibitor, full curve, poor fit]",
CC(C)c1onc(C(=O)N2CCN(Cc3ccccc3)CC2)c1[N+](=O)[O-],,inconclusive: 16.6% [activator]
Nc1nc2c(s1)CC(c1ccccc1)CC2 (centres undefined),"inconclusive [inhibitor, single point]",
CC(C)(C)c1nc2ccccc2c(=O)n1N1C(=O)c2ccccc2C1=O,"inconclusive [inhibitor, partial curve]",
CN(C)c1ccnc(N(Cc2ccccc2)Cc2ccccc2)c1C#N,"inconclusive [inhibitor, single point]",
COc1cc(/C=N/NC(N)=O)ccc1OC(=O)c1ccco1,"inconclusive [activator, single point]",
O=C(N/N=C/c1c[nH]c2ccccc12)C1CC(=O)N(c2ccccc2)C1 (centres undefined),"inconclusive [activator, single point]",
CCCC(c1nnnn1CCC(C)C)N1CCC(C(N)=O)CC1 (centres undefined),,inconclusive: -16.1% [inhibitor]
CN(C)C(=O)CSc1nnc(Cc2ccc3c(c2)OCO3)o1,,inconclusive: 16.6% [activator]
C=CCn1c(-c2csc(-c3ccccc3)n2)n[nH]c1=S,inactive,
Cc1cc(C)c(S(=O)(=O)c2ccc(Cl)cc2C)c(Cl)n1,"inconclusive [inhibitor, single point]",
COc1ccc(NC(=O)N(Cc2ccc(C)cc2)Cc2cccnc2)c(OC)c1,"inconclusive [inhibitor, single point]",
Cc1nc2ccccc2c(=O)n1/N=C/c1ccc(O)cc1O,"inconclusive [inhibitor, single point]",
CCc1nnc(NC(=O)c2csc3c2CCC(C)C3)s1 (centres undefined),,inconclusive: 14.3% [activator]
O=C(O)c1cc(NCc2c(F)cccc2Cl)ccc1N1CCOCC1,inactive,
O=C(N/N=C/c1cccc(F)c1)c1cc(-c2ccco2)nc2ccccc12,"inconclusive [inhibitor, single point]",
COc1cccc(C(=O)NCc2n[nH]c(=S)n2-c2cccc(C)c2)c1,"inconclusive [inhibitor, single point]",

SMILES,Potency,"activity change, negative = inhibition"
O=C(Nc1ccc(Cc2ccncc2)cc1)c1ccc(Cl)c([N+](=O)[O-])c1,inactive,
COc1ccc(C(NC=O)c2cc(OC)c(OC)cc2Br)cc1OC (centres undefined),"inconclusive [inhibitor, partial curve, poor fit]",
Cc1ccc(-c2nc3ncccn3c2Nc2ccc3c(c2)OCCO3)cc1,inactive,
COc1ccc(-n2ncc3c(=O)n(CC(=O)Nc4ccc(S(=O)(=O)N5CCOCC5)cc4)cnc32)cc1,"inconclusive [inhibitor, partial curve]",
Cc1cc(NC(=O)CSc2nc3ccccc3c(=O)n2CCCC(=O)NCc2ccccc2)n[nH]1,"inconclusive [activator, partial curve]",
Cc1cc(NC(=O)c2ccc(COc3ccccc3Cl)o2)no1,"inconclusive [inhibitor, full curve]",
CCN1CCCC1CNC(=O)c1cc2c(C)nc3ccccc3c2o1 (centres undefined),,inconclusive: -18.1% [inhibitor]
COc1ccc(CN2C(=O)CN(C3CCCCCC3)C(=O)C2c2ccc(F)cc2)cc1 (centres undefined),"inconclusive [inhibitor, single point]",
Cc1ccc(C)c(NC(=O)C(Sc2nnc(-c3cccs3)o2)c2ccccc2)c1 (centres undefined),"inconclusive [inhibitor, single point]",
CCOC(=O)c1sc(NS(=O)(=O)c2ccc(NC(C)=O)cc2)nc1C,,inconclusive: -24.4% [inhibitor]
OC(COCc1cccs1)CN1CCN(c2cccc(C(F)(F)F)c2)CC1 (centres undefined),"inconclusive [inhibitor, single point]",
Cc1c(C(=O)N2CCC(C)CC2)sc2ncnc(N3CCN(c4ccccc4)CC3)c12,,inconclusive: -15.2% [inhibitor]
C(=C\c1ccccc1)/CSc1nnc(-c2ccccn2)n1Cc1ccco1,"inconclusive [inhibitor, full curve]",
Nc1nnc(CCC2CCCCC2)s1,"inconclusive [inhibitor, full curve]",
COc1ccc(Cn2cc3c(-c4ccc(F)cc4)nnc-3c3cc(OC)c(OC)cc32)cc1,"inconclusive [inhibitor, single point]",
COc1ccc(-c2cc(-c3ccco3)[nH]c(=O)c2C#N)cc1OC,"inconclusive [activator, single point]",
CCOc1ccccc1N(CC(=O)NCc1ccc(OC)cc1)S(C)(=O)=O,"inconclusive [inhibitor, single point]",
O=C(c1ccccc1)C1CCc2occc2C1=O (centres undefined),"inconclusive [inhibitor, single point]",
CC/C(=N/NC(=O)CCC(=O)Nc1ccccc1OC)c1ccccc1,"inconclusive [inhibitor, single point]",
COc1cccc(/C=C2\SC(=S)N(NC(=O)c3ccncc3)C2=O)c1,,inconclusive: 17.9% [activator]
